Measurements taken from patent US20230053119A1, “FUSION POLYPEPTIDE COMPRISING Fc REGION OF IMMUNOGLOBULIN AND GDF15” (LG CHEM, LTD., priority 2019, published 2023).

Tests used:
Format in all cases: in vivo
[1] = test system: DIO mouse model (C57BL/6J-DIO); test: Weight change in DIO mice after IgG4-GDF / IgG4-GDF(CRL) administration
Experimental: (§1) The pharmacological effect of the fusion polypeptide produced and purified in Example 1 was tested in mice (C57BL/6J, 6 weeks, male, 100 mice; RaonBio).
The test materials (IgG4-GDF ? GDF IgG4-GDF(CRL)) and control material
(§2) Semaglutide (Bachem) were subcutaneously administered. The dose of all the control material and test materials was 5 mL/kg, and the dose by individual was calculated on the basis of the recently measured weight, […] (1 mL). […] For a comparison group in which Semaglutide was administered, Semaglutide were administered every day once a day. All administrations were progressed from 9 AM.
The weight of each mouse was measured at the day of the start of administration of the test materials (before administration), and then the weight was measured every day (measured by 19 days at maximum). The dose of the test materials was determined on the basis of the most recently measured weight.

[2] = Pharmacodynamic (PK) test in SD rat, serum concentration by Human GDF15 ELISA; settings: 2 mg/kg subcutaneous
Experimental: For evaluation of pharmacodynamic characteristics when each polypeptide was subcutaneously administered to rats, polypeptide IgG4-GDF or IgG4-GDF(CRL) was subcutaneously administered in an amount of 2 mg/kg, respectively, to SD Rat (Koatech, male, 7 weeks, about 250g; n=3 each; test group), and at a fixed time, blood was collected about […] through a caudal vein. Blood collecting was progressed before administration of the fusion polypeptide, in 1, 2, 4, 8, 24, 48, 72, 96, 168, 240 and 336 hours after administration. As a control group for comparison of pharmacodynamic characteristics, GDF15 (R&D Systems) was subcutaneously administered in an amount of 2 mg/kg by the same method as above to prepare GDF15 administration group.
After administering to SD Rat as above, blood collected by time-point was centrifuged to obtain serum, and ELISA was performed using Human GDF15 Immunoassay (SGD150, R&D Systems), to measure the concentration in serum over time for each polypeptide.

[3] = test system: DIO mouse model (C57BL/6J-DIO); test: Feed intake in DIO mice after IgG4-GDF / IgG4-GDF(CRL) administration
Experimental: as §1, §2
In addition, after administering the test materials to mice, the feed intake was measured every day, and the amount of feeding was measured using an electronic scale by each breeding box, and then the residual amount was measured to calculate the feed intake a day. Individuals who severely ate the feed were excluded from the measurement.

[4] = 1 nmol/kg s.c. Single Inj., Day 0
[5] = 1 nmol/kg s.c. Single Inj., Day 1
[6] = 1 nmol/kg s.c. Single Inj., Day 2
[7] = 1 nmol/kg s.c. Single Inj., Day 3
[8] = 1 nmol/kg s.c. Single Inj., Day 4
[9] = 1 nmol/kg s.c. Single Inj., Day 5
[10] = 1 nmol/kg s.c. Single Inj., Day 6
[11] = 1 nmol/kg s.c. Single Inj., Day 7
[12] = 1 nmol/kg s.c. Single Inj., Day 8
[13] = 1 nmol/kg s.c. Single Inj., Day 9
[14] = 1 nmol/kg s.c. Single Inj., Day 10
[15] = 1 nmol/kg s.c. Single Inj., Day 11
[16] = 1 nmol/kg s.c. Single Inj., Day 12
[17] = 1 nmol/kg s.c. Single Inj., Day 13
[18] = 1 nmol/kg s.c. Single Inj., Day 14
[19] = 1 nmol/kg s.c. Single Inj., Day 15
[20] = 1 nmol/kg s.c. Single Inj., Day 16
[21] = 1 nmol/kg s.c. Single Inj., Day 17
[22] = 1 nmol/kg s.c. Single Inj., Day 18
[23] = 1 nmol/kg s.c. Single Inj., Day 19
[24] = 10 nmol/kg s.c. Single Inj., Day 0
[25] = 10 nmol/kg s.c. Single Inj., Day 1
[26] = 10 nmol/kg s.c. Single Inj., Day 2
[27] = 10 nmol/kg s.c. Single Inj., Day 3
[28] = 10 nmol/kg s.c. Single Inj., Day 4
[29] = 10 nmol/kg s.c. Single Inj., Day 5
[30] = 10 nmol/kg s.c. Single Inj., Day 6
[31] = 10 nmol/kg s.c. Single Inj., Day 7
[32] = 10 nmol/kg s.c. Single Inj., Day 8
[33] = 10 nmol/kg s.c. Single Inj., Day 9
[34] = 10 nmol/kg s.c. Single Inj., Day 10
[35] = 10 nmol/kg s.c. Single Inj., Day 11
[36] = 10 nmol/kg s.c. Single Inj., Day 12
[37] = 10 nmol/kg s.c. Single Inj., Day 13
[38] = 10 nmol/kg s.c. Single Inj., Day 14
[39] = 10 nmol/kg s.c. Single Inj., Day 15
[40] = 10 nmol/kg s.c. Single Inj., Day 16
[41] = 10 nmol/kg s.c. Single Inj., Day 17
[42] = 10 nmol/kg s.c. Single Inj., Day 18
[43] = 10 nmol/kg s.c. Single Inj., Day 19

B1: IgG4-GDF(CRL): fusion polypeptide: mutated IgG4 Fc CH2-CH3 not comprising hinge (SEQ ID NO: 7)-GS linker (SEQ ID NO: 18)-GDF(CRL) (SEQ ID NO: 2) (protein)
chain: [omitted - human IgG4 Fc with F234A L235A (EU numbers)]GGGGSGGGGSGGGGSGGGGSCRLHTVRASLEDLGWADWVLSPREVQVTMCIGACPSQFRAANMHAQIKTSLHRLKPDTVPAPCCVPASYNPMVLIQKTDTGVSLQTYDDLLAKDCHCI
modifications: Synthetic_human IgG4-Fc (UniProtKB P01861) CH2-CH3 (mutated); Synthetic_peptide linker; Synthetic_DeltaN14GDF15
In the case of B1, the “duration of weight loss effect” value ([1]; 1 nmol/kg administered once) is reported as “up to 10 days”, the “Body Weight, Mean” value [1, 4] is reported as 100 % of initial and the “Body Weight, Mean” value [1, 5] is reported as 99 % of initial. The “Body Weight, Mean” value [1, 6] was 98 % of initial, the “Body Weight, Mean” value [1, 7] was 97 % of initial and the “Body Weight, Mean” value [1, 8] was 96 % of initial. The “Body Weight, Mean” value [1, 9] was 95 % of initial, the “Body Weight, Mean” value [1, 10] was 94 % of initial and the “Body Weight, Mean” value [1, 11] was 93 % of initial. The “Body Weight, Mean” value [1, 12] was 92 % of initial, the “Body Weight, Mean” value [1, 13] was 92 % of initial and the “Body Weight, Mean” value [1, 14] was 91 % of initial. For the same molecule, the “Body Weight, Mean” value [1, 15] was 91 % of initial, the “Body Weight, Mean” value [1, 16] was 91 % of initial and the “Body Weight, Mean” value [1, 17] was 91 % of initial. The “Body Weight, Mean” value [1, 18] was 91 % of initial, the “Body Weight, Mean” value [1, 19] was 91 % of initial and the “Body Weight, Mean” value [1, 20] was 91 % of initial. The “Body Weight, Mean” value [1, 21] was 92 % of initial, the “Body Weight, Mean” value [1, 22] was 92 % of initial and the “Body Weight, Mean” value [1, 23] was 92 % of initial. The “duration of weight loss effect” value ([1]; 10 nmol/kg administered once) was “up to 15 days”, the “Body Weight, Mean” value [1, 24] was 100 % of initial and the “Body Weight, Mean” value [1, 25] was 98 % of initial. The “Body Weight, Mean” value [1, 26] was 97 % of initial, the “Body Weight, Mean” value [1, 27] was 95 % of initial and the “Body Weight, Mean” value [1, 28] was 94 % of initial. The “Body Weight, Mean” value [1, 29] was 92 % of initial, the “Body Weight, Mean” value [1, 30] was 91 % of initial and the “Body Weight, Mean” value [1, 31] was 90 % of initial. For the same molecule, the “Body Weight, Mean” value [1, 32] was 88 % of initial, the “Body Weight, Mean” value [1, 33] was 87 % of initial and the “Body Weight, Mean” value [1, 34] was 85 % of initial. For the same molecule, the “Body Weight, Mean” value [1, 35] was 85 % of initial, the “Body Weight, Mean” value [1, 36] was 84 % of initial and the “Body Weight, Mean” value [1, 37] was 83 % of initial. For the same molecule, the “Body Weight, Mean” value [1, 38] was 83 % of initial, the “Body Weight, Mean” value [1, 39] was 82 % of initial and the “Body Weight, Mean” value [1, 40] was 83 % of initial. For the same molecule, the “Body Weight, Mean” value [1, 41] was 84 % of initial, the “Body Weight, Mean” value [1, 42] was 84 % of initial and the “Body Weight, Mean” value [1, 43] was 85 % of initial. The “weight loss effect at the same dose compared to the GDF (CRL) fusion polypeptide with Fc (Mutated) of IgG4 comprising Hinge (in words)” value ([1]; same dose) was “excellent weight loss effect”, the AUCextp ([2]; [(AUCinf − AUClast)/AUCinf]*100) was 18.2% and the AUClast ([2]; serum) was 2004 µg·h/mL. The “Cmax (maximum blood concentration)” value ([2]; serum) was 9730 ng/mL, the “Tmax (time to reach maximum blood concentration)” value ([2]; serum) was 48 h and the half-life ([2]; serum) was 114 h. The “t1/2 (elimination half-life)” value ([2]; serum) was 114 h, the AUCinf ([2]; serum, extrapolated to infinite time) was 2593 µg·h/mL and the “Feed intake a day, Mean” value [3, 4] was 3.3. The “Feed intake a day, Mean” value [3, 5] was 2.0, the “Feed intake a day, Mean” value [3, 6] was 2.6 and the “Feed intake a day, Mean” value [3, 7] was 2.7. The “Feed intake a day, Mean” value [3, 8] was 2.4, the “Feed intake a day, Mean” value [3, 9] was 2.7 and the “Feed intake a day, Mean” value [3, 10] was 2.3. For the same molecule, the “Feed intake a day, Mean” value [3, 11] was 2.5, the “Feed intake a day, Mean” value [3, 12] was 2.5 and the “Feed intake a day, Mean” value [3, 13] was 2.8. The “Feed intake a day, Mean” value [3, 14] was 2.4, the “Feed intake a day, Mean” value [3, 15] was 2.8 and the “Feed intake a day, Mean” value [3, 16] was 2.6. The “Feed intake a day, Mean” value [3, 17] was 3.0, the “Feed intake a day, Mean” value [3, 18] was 2.8 and the “Feed intake a day, Mean” value [3, 19] was 2.9. For the same molecule, the “Feed intake a day, Mean” value [3, 20] was 3.1, the “Feed intake a day, Mean” value [3, 21] was 3.3 and the “Feed intake a day, Mean” value [3, 22] was 3.0. For the same molecule, the “Feed intake a day, Mean” value [3, 23] was 3.3, the “weight loss effect compared to the full-length GDF15 fusion polypeptide (in words)” value ([3]; 10 nmol/kg dose) was “a little excellent weight loss effect” and the “Feed intake a day, Mean” value [3, 24] was 3.1. For the same molecule, the “Feed intake a day, Mean” value [3, 25] was 1.5, the “Feed intake a day, Mean” value [3, 26] was 2.3 and the “Feed intake a day, Mean” value [3, 27] was 2.4. For the same molecule, the “Feed intake a day, Mean” value [3, 28] was 2.4, the “Feed intake a day, Mean” value [3, 29] was 2.3 and the “Feed intake a day, Mean” value [3, 30] was 2.3. The “Feed intake a day, Mean” value [3, 31] was 2.0, the “Feed intake a day, Mean” value [3, 32] was 2.3 and the “Feed intake a day, Mean” value [3, 33] was 2.4. The “Feed intake a day, Mean” value [3, 34] was 2.1, the “Feed intake a day, Mean” value [3, 35] was 2.5 and the “Feed intake a day, Mean” value [3, 36] was 2.3. For the same molecule, the “Feed intake a day, Mean” value [3, 37] was 2.5, the “Feed intake a day, Mean” value [3, 38] was 2.6 and the “Feed intake a day, Mean” value [3, 39] was 2.6. The “Feed intake a day, Mean” value [3, 40] was 3.0, the “Feed intake a day, Mean” value [3, 41] was 3.4 and the “Feed intake a day, Mean” value [3, 42] was 3.3. For the same molecule, the “Feed intake a day, Mean” value [3, 43] was 3.1 and the “duration for which diet suppression ability was maintained” value ([3]; 10 nmol/kg single administration) was “about 2 weeks”.
